Results published in article PMC11995724, “Antibiotic target discovery by integrated phenotypic and activity-based profiling of electrophilic fragments” (Cell chemical biology, 2025).
Hit rate of the full screen: of about 3,200 compounds, about 110 (3.4%) showed an effect of 50% or more. The list shows a part of the results.

Each molecule was assayed on T1, V. cholerae SAD30. Conditions: relative growth, OD600, LB; 25 µM; inhibitor.
T1 construct: SAD30
Set-up: species or system S. aureus MSSA476 (TSB) or V. cholerae SAD30 (LB); 384-well bacterial growth screen at 25 uM, OD600 relative to DMSO control

Row | SMILES | % of control remaining [%]
1 | O=C1CCCc2cc(C(=O)CCl)ccc2N1 [10-M20, 7-(2-chloroacetyl)-2,3,4,5-tetrahydro-1H-1-benzazepin-2-one] | 94.6035
2 | COc1ccc(NC(=O)CCl)c([N+](=O)[O-])c1 [4-I21, 2-chloro-N-(4-methoxy-2-nitrophenyl)acetamide] | 107.311
3 | N#CC(=Cc1cccc(F)c1)C(=O)Nc1cc(Cl)ccc1Cl [9-P03, 2-cyano-N-(2,5-dichlorophenyl)-3-(3-fluorophenyl)prop-2-enamide] | 92.2502
4 | CCN(C(=O)CCl)c1ccccc1 [6-E15, 2-chloro-N-ethyl-N-phenylacetamide] | 87.8188
5 | O=C(CCl)NCc1ccc(N2CCOCC2)nc1 [6-E22, 2-chloro-N-{[6-(morpholin-4-yl)pyridin-3-yl]methyl}acetamide] | 101.773
6 | C=CC(=O)N1CCOC(c2ccc(F)c(C)c2)C1 (stereo not drawn) [3-A09, 1-[2-(4-fluoro-3-methylphenyl)morpholin-4-yl]prop-2-en-1-one] | 114.674
7 | Cc1c(C#N)c(NC(=O)CCl)n(C2CCCCC2)c1C [4-N18, 2-chloro-N-(3-cyano-1-cyclohexyl-4,5-dimethyl-1H-pyrrol-2-yl)acetamide] | 106.276
8 | C=CC(=O)N(CC)CC(=O)N1CCn2c(nc(C)c2C)C1 [2-B18, N-(2-{2,3-dimethyl-5H,6H,7H,8H-imidazo[1,2-a]pyrazin-7-yl}-2-oxoethyl)-N-ethylprop-2-enamide] | 95.4453
9 | O=C(CCl)NC1CCN(C(=O)c2ccccc2)C1 (stereo not drawn) [7-P06, N-(1-benzoylpyrrolidin-3-yl)-2-chloroacetamide] | 95.1594
10 | COc1ccc(CC2CCN2C(=O)C(C)Cl)cc1 (stereo not drawn) [5-O22, 2-chloro-1-{2-[(4-methoxyphenyl)methyl]azetidin-1-yl}propan-1-one] | 97.0054
11 | CN1C=CC(=C(C#N)C(=O)CCl)C=C1 [10-G21, 4-chloro-2-(1-methyl-1,4-dihydropyridin-4-ylidene)-3-oxobutanenitrile] | 95.8504
12 | C=CC(=O)NCCC(=O)N1CCOC(c2nc(C)cs2)C1 (stereo not drawn) [3-K04, N-{3-[2-(4-methyl-1,3-thiazol-2-yl)morpholin-4-yl]-3-oxopropyl}prop-2-enamide] | 102.852
13 | C=CC(=O)Nc1ccc(F)c(-n2nnnc2C)c1 [2-K11, N-[4-fluoro-3-(5-methyl-1H-1,2,3,4-tetrazol-1-yl)phenyl]prop-2-enamide] | 90.3503
14 | C=CC(=O)NCC1CCc2nnc(C(C)C)n2C1 (stereo not drawn) [2-J03, N-{[3-(propan-2-yl)-5H,6H,7H,8H-[1,2,4]triazolo[4,3-a]pyridin-6-yl]methyl}prop-2-enamide] | 105.944
15 | C=CC(=O)N1CCOC(Cn2nc(C)cc2C)C1 (stereo not drawn) [3-C13, 1-{2-[(3,5-dimethyl-1H-pyrazol-1-yl)methyl]morpholin-4-yl}prop-2-en-1-one] | 99.5001
16 | CC(NC(=O)CCl)C(=O)N1CCCCC1C (stereo not drawn) [5-M06, 2-chloro-N-[1-(2-methylpiperidin-1-yl)-1-oxopropan-2-yl]acetamide] | 96.6691
17 | C=CC(=O)N1CCC(n2ncc3ccccc32)CC1 [1-K22, 1-[4-(1H-indazol-1-yl)piperidin-1-yl]prop-2-en-1-one] | 95.6652
18 | N#CC(=Cc1ccccc1Cl)C(=O)NCc1ccccc1 [9-F13, N-benzyl-3-(2-chlorophenyl)-2-cyanoprop-2-enamide] | 84.3644
19 | N#CC(=Cc1ccc2c(c1)OCCO2)C(=O)NC1CCCCC1 [9-J19, 2-cyano-N-cyclohexyl-3-(2,3-dihydro-1,4-benzodioxin-6-yl)prop-2-enamide] | 91.8423
20 | O=C(CCl)NC1CCCc2cn(C3CCCC3)nc21 (stereo not drawn) [5-O09, 2-chloro-N-(2-cyclopentyl-4,5,6,7-tetrahydro-2H-indazol-7-yl)acetamide] | 101.713
21 | C=CC(=O)N1CCC(C(=O)NCc2ccc(OC)cn2)CC1 [3-O19, N-[(5-methoxypyridin-2-yl)methyl]-1-(prop-2-enoyl)piperidine-4-carboxamide] | 106.558
22 | O=C(O)C(c1ccccc1)N1C(=O)C=CC1=O (stereo not drawn) [10-E21, 2-(2,5-dioxo-2,5-dihydro-1H-pyrrol-1-yl)-2-phenylacetic acid] | 103.487
23 | CC(Cl)C(=O)NCc1ncnn1C(C)C (stereo not drawn) [5-P15, 2-chloro-N-{[1-(propan-2-yl)-1H-1,2,4-triazol-5-yl]methyl}propanamide] | 104.739
24 | CC(Cl)C(=O)NC(C)(C)c1cccc(Cl)c1F (stereo not drawn) [7-E15, 2-chloro-N-[2-(3-chloro-2-fluorophenyl)propan-2-yl]propanamide] | 65.4221
25 | C=CC(=O)N1CCC(c2nc(C(=O)O)cs2)CC1 [1-O21, 2-[1-(prop-2-enoyl)piperidin-4-yl]-1,3-thiazole-4-carboxylic acid] | 93.2735
26 | NC(=O)c1csc(C(=O)CCl)c1 [10-L06, 5-(2-chloroacetyl)thiophene-3-carboxamide] | 54.549
27 | CC(Cl)C(=O)N1CCC(Oc2ccc(C3CC3)cn2)C1 (stereo not drawn) [7-A18, 2-chloro-1-{3-[(5-cyclopropylpyridin-2-yl)oxy]pyrrolidin-1-yl}propan-1-one] | 73.0877
28 | CC(Cl)C(=O)N1CC(S(=O)(=O)Nc2ccccc2)C1 (stereo not drawn) [7-G05, 1-(2-chloropropanoyl)-N-phenylazetidine-3-sulfonamide] | 85.9078
29 | Cc1cccc(NC(=O)C(C)Cl)c1 (stereo not drawn) [5-P10, 2-chloro-N-(3-methylphenyl)propanamide] | 105.075
30 | Cc1cc(C)n2c(-c3c(Cl)cccc3NC(=O)CCl)nnc2n1 [5-M16, 2-chloro-N-(3-chloro-2-{5,7-dimethyl-[1,2,4]triazolo[4,3-a]pyrimidin-3-yl}phenyl)acetamide] | 101.376
